# How the values were obtained:
# [1] = tested on: methicillin-resistant Staphylococcus aureus (MRSA) strain BAA-1707 (USA-400, MW2); assay: Mouse model of S. aureus systemic infection (peritonitis model), MRSA; conditions: mice; for PD50: 50% survival at 24 h (probit method); for PD100: 100% survival at 24 h
# [2] = tested on: methicillin-sensitive Staphylococcus aureus (MSSA) strain 8325-4; assay: Mouse model of S. aureus systemic infection (peritonitis model), MSSA; conditions: mice, intravenous administration; for PD50: 50% survival at 24 h (probit method); for PD100: 100% survival at 24 h
# [3] = tested on: Escherichia coli strain D21f2tolC; assay: MIC, spiral gradient endpoint assay, E. coli; conditions: for MIC: Escherichia coli, D21F2TOLC, 16 h, read-out: MIC E. coli D21f2tolC
# [4] = tested on: methicillin-sensitive Staphylococcus aureus (MSSA) strain ATCC 12600; assay: MIC, spiral gradient endpoint assay, MSSA; conditions: for MIC: Staphylococcus aureus, 16 h, read-out: MIC S. aureus MSSA 12600
# [5] = tested on: methicillin-resistant Staphylococcus aureus (MRSA) strain BAA-1707 (USA-400; MW2); assay: MIC, spiral gradient endpoint assay, MRSA; conditions: for MIC: Staphylococcus aureus, 16 h, read-out: MIC S. aureus MRSA BAA-1707
# [6] = 16 h at 37° C., Mueller-Hinton II agar
Compound,PD50 ([1]; intravenous administration),PD100 ([1]; intravenous administration),PD50 ([1]; oral administration),PD100 ([1]; oral administration),PD50 [2],PD100 [2],"MIC E. coli D21f2tolC [3, 6]","MIC S. aureus MSSA 12600 [4, 6]","MIC S. aureus MRSA BAA-1707 [5, 6]",MIC [3],MIC [4],MIC [5]
"CCCC/C(C)=C/C=C(\C)C(=O)c1c(O)cc([C@H](C)CC/C=C/NC(=O)OC)oc1=O (racemic) [Myx B, (±)myxopyronin B, reference compound]",20 mg/kg,50 mg/kg,40 mg/kg,100 mg/kg,30 mg/kg,>50 mg/kg,0.1 µg/mL,0.6 µg/mL,0.9 µg/mL,–,–,–
"COC(=O)N/C=C/CCC(C)c1cc(O)c(C(=O)/C(C)=C/C=C(\C)CCCC(F)(F)F)c(=O)o1 (stereo not shown) [compound 1, Methyl ((E)-5-(4-hydroxy-2-oxo-3-((2E,4E)-9,9,9-trifluoro-2,5-dimethylnona-2,4-dienoyl)-2H-pyran-6-yl)hex-1-en-1-yl)carbamate]",10 mg/kg,50 mg/kg,–,–,20 mg/kg,>25 mg/kg,–,–,–,0.07 µg/mL,0.3 µg/mL,0.5 µg/mL
"COC(=O)N/C=C/CCC(C)c1cc(O)c(C(=O)/C(C)=C/C=C(\C)CCCCC(F)(F)F)c(=O)o1 (stereo not shown) [compound 3, Methyl ((E)-5-(4-hydroxy-2-oxo-3-((2E,4E)-10,10,10-trifluoro-2,5-dimethyldeca-2,4-dienoyl)-2H-pyran-6-yl)hex-1-en-1-yl)carbamate]",–,–,–,–,–,–,–,–,–,0.3 µg/mL,1 µg/mL,3 µg/mL
COC(=O)N/C=C/CCC(C)c1cc(O)c(C(=O)/C(C)=C/C=C(\C)CCC(F)(F)F)c(=O)o1 (stereo not shown) [compound 5],–,–,20 mg/kg,50 mg/kg,7 mg/kg,25 mg/kg,–,–,–,0.2 µg/mL,0.9 µg/mL,1 µg/mL
"COC(=O)N/C=C/CCCc1cc(O)c(C(=O)/C(C)=C/C=C(\C)CCCC(F)(F)F)c(=O)o1 [compound 9, Methyl ((E)-5-(4-hydroxy-2-oxo-3-((2E,4E)-9,9,9-trifluoro-2,5-dimethylnona-2,4-dienoyl)-2H-pyran-6-yl)pent-1-en-1-yl)carbamate]",–,–,–,–,10 mg/kg,25 mg/kg,–,–,–,0.2 µg/mL,0.9 µg/mL,0.8 µg/mL
"COC(=O)N/C=C/CCCc1cc(O)c(C(=O)/C(C)=C/C=C(\C)CCC(F)(F)F)c(=O)o1 [compound 11, Methyl ((E)-5-(4-hydroxy-2-oxo-3-((2E,4E)-8,8,8-trifluoro-2,5-dimethylocta-2,4-dienoyl)-2H-pyran-6-yl)pent-1-en-1-yl)carbamate]",–,–,–,–,–,–,–,–,–,0.2 µg/mL,2 µg/mL,2 µg/mL

# Source: US9187446B2, “Antibacterial agents: sidechainfluorinated myxopyronin derivatives” (RUTGERS, THE STATE UNIVERSITY OF NEW JERSEY, priority 2012, dated 2015)
